# Measured values as given in the supplement of paper PMC3334620.
# In all, about 33,000 sequences were measured (“E-score (-0.5 to 0.5)”: median about -0.016, highest 2% from about 0.32 on). The list shows a part of the results.
# Target: T1, Stp1 (UniProt B3LFK1)
# T1 sequence: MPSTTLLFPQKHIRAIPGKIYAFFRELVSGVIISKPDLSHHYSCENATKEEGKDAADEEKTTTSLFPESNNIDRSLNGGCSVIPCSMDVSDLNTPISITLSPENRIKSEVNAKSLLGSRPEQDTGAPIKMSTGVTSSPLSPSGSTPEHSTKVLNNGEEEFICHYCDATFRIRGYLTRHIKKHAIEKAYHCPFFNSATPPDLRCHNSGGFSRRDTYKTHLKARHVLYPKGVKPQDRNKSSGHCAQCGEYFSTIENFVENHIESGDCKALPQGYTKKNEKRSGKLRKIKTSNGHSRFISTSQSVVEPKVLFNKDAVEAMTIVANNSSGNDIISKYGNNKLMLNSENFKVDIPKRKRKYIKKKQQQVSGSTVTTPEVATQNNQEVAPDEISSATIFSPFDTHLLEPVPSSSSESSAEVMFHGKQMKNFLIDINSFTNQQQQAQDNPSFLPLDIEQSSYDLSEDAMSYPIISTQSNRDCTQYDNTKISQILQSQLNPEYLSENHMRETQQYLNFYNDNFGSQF
# Assay: PBM E-score (8-mer binding enrichment) (E-score (-0.5 to 0.5)); higher = stronger / more preferred TF binding; most listed sequences are background and not binding sites
# Details: protein concentration: 200 nM; construct: GST-full length
# Method in brief: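 GST-tagged yeast TFs (full-length or DNA-binding domain) were made by PURExpress in vitro transcription/translation and applied at about 100-200 nM to universal all-10-mer Agilent arrays. The arrays were made double-stranded by primer extension, on fresh or once-stripped slides. Bound protein was detected with fluorescent anti-GST, and scans were normalised with masliner. Each ungapped eight-base word, pooled with its reverse complement, received an E-score (modified Wilcoxon-Mann-Whitney statistic) from the Universal PBM Analysis Suite.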
row,Sequence,PBM E-score
1,CAGGTCAA,-0.183
2,GGACGCCC,-0.158
3,TGGTGAAA,0.0915
4,AACGGTCT,-0.21
5,AAACACTG,0.0749
6,AAGGTAGG,-0.222
7,CGCCGCCC,0.346
8,CTGCAGCA,-0.12
9,CTTCAGTA,0.0999
10,CAGGCAAG,-0.0138
11,GCATGCAA,0.201
12,ATCTGCGC,0.129
13,ACGCGCTA,0.0238
14,TAAAACCA,0.0806
15,GGATAGCA,0.0988
16,CTTCCTAC,-0.225
17,CTGTTAGA,-0.0404
18,GGTCAGGA,-0.203
19,GGGTCTAC,-0.0721
20,ACCTAAAT,0.0152
21,CACGGATC,0.286
22,GAACCAGC,-0.0872
23,ATAGTGTG,0.00158
24,GCACCTGC,0.101
25,CTAACTTA,0.197

row,Sequence,PBM E-score
1,GCCAAAGC,-0.142
2,AATGATAG,0.073
3,ATCGTTTG,0.104
4,GACTACAC,0.00032
5,GTGAGTGA,-0.139
6,ACCCTAAC,-0.0563
7,ACTAAGCG,-0.0972
8,ATCGCAGA,-0.0303
9,TACGGAAA,0.151
10,CGTGCCCA,0.235
11,CACAGGGC,0.0826
12,CACGGCAA,0.469
13,AACATCAG,0.0591
14,ATCTCAGC,-0.0455
15,CGCATTCC,-0.315
16,AAAGCCAT,0.155
17,AAATGGTC,-0.035
18,TACCGACA,0.0897
19,GCCCGTGA,-0.0631
20,CGGTAACA,0.122
21,CCTAGATA,-0.0598
22,GCGAGCCC,-0.0404
23,AATAGTCG,-0.0177
24,ACACAACT,0.0403
25,AGCATTGA,-0.0564

row,Sequence,PBM E-score
1,TTCGTAAA,0.0535
2,AGGGAGCA,-0.403
3,AGCTCATA,-0.0536
4,GCCTAGCC,0.0204
5,CGTGACCA,-0.116
6,CTGTAGGA,-0.0926
7,AGAGCCAC,0.0143
8,AAGCACTT,-0.171
9,AAGAGGCG,0.298
10,ATAGCACG,0.129
11,CCGCACGA,0.27
12,CTAATGAG,0.0123
13,ATGTTACC,0.0678
14,GTGATCAA,0.077
15,AGTGCGCG,0.0268
16,AAGCGGTG,-0.156
17,CAAATAAA,0.256
18,GTGCGGGA,0.041
19,ACGCGCCT,0.34
20,GTGGACTA,-0.0662
21,GGCAGGCA,-0.0212
22,CCTCAAGC,-0.257
23,AAAACGTT,0.0424
24,ACCGGATA,-0.161
25,CAATAGTC,-0.0133

row,Sequence,PBM E-score
1,CCCATGAC,-0.137
2,AAGGTATT,0.0209
3,AGCCCCAA,-0.185
4,CCTATGTC,-0.185
5,CCACACTA,0.127
6,AATCCAGC,-0.213
7,CAATTCGG,0.145
8,CTGGAGAA,-0.208
9,GATACCCC,-0.196
10,ACTCATCT,-0.136
11,CCCCCTAG,-0.354
12,GAAATCGC,0.0286
13,ACGCGCAG,-0.103
14,AACTGTTC,-0.0898
15,AGCGATAC,-0.089
16,CAGATAGG,-0.0177
17,CAGAAAAG,-0.0641
18,AAATCTCC,-0.117
19,AAGTCGAT,-0.0828
20,TCATGCAA,-0.032
21,CTGAATAC,-0.00118
22,GGCCAAAC,-0.0831
23,AGTCTTGG,-0.123
24,CATTGGCA,-0.0344
25,TCCCCGCA,0.0182

row,Sequence,PBM E-score
1,CGGCTAGC,0.089
2,AACTCACT,-0.127
3,AAGGGGAT,-0.158
4,ATATTCGC,0.118
5,GTCCGAGA,0.123
6,CACATCGA,-0.0718
7,AAGAACAT,0.147
8,CAAAGTTG,0.124
9,AACCGCGG,0.18
10,CTGAGTTA,-0.149
11,TATTATGA,0.117
12,GCCTGCCC,-0.0443
13,ACTAATCC,-0.0512
14,TGGTACAA,-0.109
15,ATTGGATC,0.131
16,CGGGAGGC,-0.0739
17,CGAATTTA,0.152
18,GCAATGTA,-0.059
19,ACCCCTGC,-0.375
20,TAGGCATA,-0.00082
21,GCATTGGC,-0.0163
22,CACTTTGA,-0.0765
23,GAGGGCCC,-0.375
24,AAGCGCCT,0.272
25,AGCCGGCA,0.0341

row,Sequence,PBM E-score
1,CATGTTAG,-0.00716
2,ATGATTTG,-0.066
3,ACCAAAGC,0.0787
4,AGGGTGGG,-0.168
5,ACGCGTGC,0.191
6,AGAGCGAT,-0.293
7,ATCTCAGG,-0.0451
8,AGCCAACA,-0.0766
9,ATTTGTAG,0.0817
10,ATCACGTA,-0.0216
11,GCCACACC,0.175
12,CCTACAAC,0.0976
13,GCACGTCA,-0.017
14,AGCGCGAG,0.0353
15,AAGCCACG,0.0378
16,CCATACAC,0.112
17,AAATTGGC,0.00303
18,AACGGCTG,0.0994
19,ACAAGATG,-0.052
20,AAGTTAGA,0.0445
21,ATTCGCAG,0.113
22,ACAAGGAG,0.139
23,CGAGATAG,-0.206
24,CTTAAAAG,-0.174
25,TAATCCGA,-0.15

row,Sequence,PBM E-score
1,ACCAGAAA,-0.0473
2,AGGCTCAT,0.191
3,CCCTCCAA,-0.0894
4,AAGTGCAT,0.117
5,ACTATCTG,-0.183
6,ACATCGAG,-0.111
7,TTGTAAAA,0.131
8,CTTTATGC,0.17
9,GCGTTAAC,0.229
10,CCCAGTAA,-0.0921
11,ACCTGTAA,0.00569
12,TCGAAGAA,-0.209
13,ACAGAAAT,0.139
14,ACATTGCC,0.0247
15,CGGGAGAG,-0.283
16,TCGTTTCA,0.102
17,CGAGTCGA,-0.00477
18,GCCTAGAC,-0.0643
19,CAGTATAA,0.115
20,AAACAGTC,-0.0975
21,AGCGAATC,-0.11
22,GATACTCC,-0.0868
23,AAAGTATG,0.00188
24,CAAAAAAG,0.188
25,ACGTGGTA,-0.0691

row,Sequence,PBM E-score
1,AATAATAG,-0.025
2,CTCGCAAC,-0.00839
3,GCCTACGC,0.134
4,CATCGCGC,0.0387
5,GATACCAA,0.156
6,CTTGACGA,-0.206
7,ACGTGGTC,-0.204
8,AGTTAATG,-0.00872
9,TCTGCTAA,0.0326
10,ATTAATCC,-0.019
11,CCCACGCA,-0.0405
12,ATGTAGGG,-0.163
13,ACACTTAA,0.105
14,AACCCCGT,-0.0797
15,ACTGGATA,0.182
16,CTTGCTAC,-0.0318
17,CCGACGTC,-0.186
18,TAGAGATA,0.2
19,ACTCCTCT,-0.278
20,ACTGATAA,0.106
21,CTATTCTC,-0.0296
22,CATACTAA,0.125
23,CTGGGCAC,-0.077
24,AAGAACAG,-0.0163
25,AGTTGTAC,0.0445

row,Sequence,PBM E-score
1,CGAGAGTC,-0.325
2,GTGCCGAA,0.322
3,AGGCAGGA,-0.137
4,CGCAGCAG,0.0762
5,AAGGAAAT,0.132
6,CGGCTTAC,0.104
7,ATCTGTCC,-0.14
8,CCTAGCCA,-0.0258
9,ATATGGGA,-0.221
10,AAGAGAAC,-0.00573
11,CTCACGAA,0.195
12,AGGAGGGG,-0.262
13,GCACATTA,0.22
14,AACTCGCA,0.0633
15,AAATTGAA,0.0576
16,GACAGCAC,0.0362
17,AGCGGGTC,-0.315
18,GACAGAAA,0.162
19,CAAAGAAG,-0.00872
